{"source": "paper PMC4336329", "about": "(PLoS ONE, 2015)", "note": "The campaign covered roughly 310,000 compounds. About 2,200 (0.71%) showed an effect of 50% or more. Effects have a minus sign here. This is one part of the list.", "data": [{"target": "human ether-à-go-go-related gene (hERG) potassium channel (human, UniProt Q12809)", "sequence (Q12809 whole entry, looked up)": "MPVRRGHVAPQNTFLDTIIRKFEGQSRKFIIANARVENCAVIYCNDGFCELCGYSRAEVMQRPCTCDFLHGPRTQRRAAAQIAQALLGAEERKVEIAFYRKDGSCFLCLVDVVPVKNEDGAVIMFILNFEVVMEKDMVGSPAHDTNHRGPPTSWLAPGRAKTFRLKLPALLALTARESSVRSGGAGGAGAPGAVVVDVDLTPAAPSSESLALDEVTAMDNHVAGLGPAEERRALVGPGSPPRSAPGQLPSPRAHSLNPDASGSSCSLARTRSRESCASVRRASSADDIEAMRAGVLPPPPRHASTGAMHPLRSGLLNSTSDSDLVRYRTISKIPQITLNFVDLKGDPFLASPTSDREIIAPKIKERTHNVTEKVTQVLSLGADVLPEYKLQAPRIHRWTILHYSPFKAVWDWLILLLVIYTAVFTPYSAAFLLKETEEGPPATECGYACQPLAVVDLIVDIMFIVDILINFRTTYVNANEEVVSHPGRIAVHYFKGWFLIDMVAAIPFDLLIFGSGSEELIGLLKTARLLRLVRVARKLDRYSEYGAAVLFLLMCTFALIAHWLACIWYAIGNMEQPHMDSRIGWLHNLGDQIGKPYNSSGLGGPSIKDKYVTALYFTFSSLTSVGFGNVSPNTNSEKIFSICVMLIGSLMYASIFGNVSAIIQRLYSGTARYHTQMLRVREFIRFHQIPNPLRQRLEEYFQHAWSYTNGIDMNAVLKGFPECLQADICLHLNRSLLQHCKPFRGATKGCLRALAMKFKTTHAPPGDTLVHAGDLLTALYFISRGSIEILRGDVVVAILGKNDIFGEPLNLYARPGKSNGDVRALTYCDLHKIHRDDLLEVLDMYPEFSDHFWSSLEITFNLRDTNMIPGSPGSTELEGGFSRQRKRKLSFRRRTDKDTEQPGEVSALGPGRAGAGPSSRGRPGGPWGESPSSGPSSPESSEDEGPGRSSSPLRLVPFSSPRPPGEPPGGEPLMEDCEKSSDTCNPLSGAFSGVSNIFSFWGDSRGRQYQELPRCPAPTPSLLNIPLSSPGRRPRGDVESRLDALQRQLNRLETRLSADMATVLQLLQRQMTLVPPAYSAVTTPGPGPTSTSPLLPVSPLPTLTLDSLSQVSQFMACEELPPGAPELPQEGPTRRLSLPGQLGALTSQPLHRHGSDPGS", "assay": "primary screen, population patch clamp on CHO cells stably expressing hERG", "units": {"hERG current change (%, negative = inhibition) at 1uM": "%"}, "values": [{"smiles": "CC1Cc2nc(SCC(=O)NCc3ccccc3)n(Cc3ccccc3)c(=O)c2S1", "note": "(stereo not drawn)", "hERG current change (%, negative = inhibition) at 1uM": -7.75}, {"smiles": "CC(C)(c1ccccc1)c1ccc(OCCn2cnc3ccccc3c2=O)cc1.O=C(O)C(=O)O", "hERG current change (%, negative = inhibition) at 1uM": 12.7}, {"smiles": "Cc1ccc(N(Cc2cc3cccc(C)c3[nH]c2=O)S(=O)(=O)c2ccccc2)c(C)c1", "hERG current change (%, negative = inhibition) at 1uM": 3.05}, {"smiles": "Cc1c(C(=O)O)cccc1[N+](=O)[O-]", "hERG current change (%, negative = inhibition) at 1uM": 13.1}, {"smiles": "CCCCSc1nc2[nH]ncc2c(=O)[nH]1", "hERG current change (%, negative = inhibition) at 1uM": 2.23}, {"smiles": "CCOC(=O)NC1(C(F)(F)F)C(=O)NC(C)=C1C#N", "note": "(stereo not drawn)", "hERG current change (%, negative = inhibition) at 1uM": -2.97}, {"smiles": "CCSc1nc2ccccc2n1Cc1cccc([N+](=O)[O-])c1", "hERG current change (%, negative = inhibition) at 1uM": -11.3}, {"smiles": "O=C(c1ccc(CN2CCOCC2)cc1)N1CCN(c2cccc(Cl)c2)CC1", "hERG current change (%, negative = inhibition) at 1uM": 6.91}, {"smiles": "O=C(C1CCN(S(=O)(=O)c2cnc[nH]2)CC1)N(CCc1ccccc1)Cc1ccccc1", "hERG current change (%, negative = inhibition) at 1uM": 9.5}, {"smiles": "CNCc1ccccc1Sc1ccc(OC)c(OC)c1.O=C(O)/C=C\\C(=O)O", "hERG current change (%, negative = inhibition) at 1uM": 6.96}, {"smiles": "Cc1cccc(NC(=S)NC(=O)C(c2ccccc2)c2ccccc2)n1", "hERG current change (%, negative = inhibition) at 1uM": 8.13}, {"smiles": "COc1ccc(-c2noc(-c3cccs3)n2)cc1OC", "hERG current change (%, negative = inhibition) at 1uM": 15.7}, {"smiles": "NNC(=O)Cn1c(-c2ccccc2)cc2ccccc21", "hERG current change (%, negative = inhibition) at 1uM": 16.1}, {"smiles": "COC(=O)c1ccc(Nc2nnc(-c3ccc(C)c(S(=O)(=O)NCC4CCCO4)c3)c3ccccc23)cc1", "note": "(stereo not drawn)", "hERG current change (%, negative = inhibition) at 1uM": 8.24}, {"smiles": "COC(=O)c1cccc(-n2nnnc2SCC(=O)Nc2cc(C)on2)c1", "hERG current change (%, negative = inhibition) at 1uM": 5.93}, {"smiles": "CCC(C)(C)NC(=O)C(c1ccc(O)cc1)N(C(=O)Cn1nnc2ccccc21)c1ccc(NC(C)=O)cc1", "note": "(stereo not drawn)", "hERG current change (%, negative = inhibition) at 1uM": 5.48}, {"smiles": "CCOc1cc(/C=N\\Nc2ccc([N+](=O)[O-])cc2)ccc1OCC(=O)Nc1ccc(C)c(C)c1", "hERG current change (%, negative = inhibition) at 1uM": 15.7}, {"smiles": "c1ccc(Cc2nn3c(C4COc5ccccc5O4)nnc3s2)cc1", "note": "(stereo not drawn)", "hERG current change (%, negative = inhibition) at 1uM": 2.9}, {"smiles": "CC(C)C(=O)Nc1nnc(SCC(=O)Nc2ccc3c(c2)OCCO3)s1", "hERG current change (%, negative = inhibition) at 1uM": 9.69}, {"smiles": "COC(CNC(=O)c1cn(C)c2ccc(S(=O)(=O)N(C)C3CCCCC3)cc2c1=O)OC", "hERG current change (%, negative = inhibition) at 1uM": 1.29}, {"smiles": "COc1cccc(OC)c1C(=O)OCC(=O)Nc1cccnc1Cl", "hERG current change (%, negative = inhibition) at 1uM": 1.91}, {"smiles": "O=C(O)C1C2CCC(C2)C1C(=O)N1CCCC1", "note": "(stereo not drawn)", "hERG current change (%, negative = inhibition) at 1uM": 14.8}, {"smiles": "S=c1[nH]nc(-c2ccccc2)n1/N=C/c1c[nH]c2ccccc12", "hERG current change (%, negative = inhibition) at 1uM": 13}, {"smiles": "COC(=O)C(C)(C(=O)OC)c1ccc([N+](=O)[O-])cn1", "hERG current change (%, negative = inhibition) at 1uM": 13.8}, {"smiles": "CS(=O)(=O)CCC(C(=O)OCc1ccc(Cl)cc1)N1C(=O)c2ccccc2C1=O", "note": "(stereo not drawn)", "hERG current change (%, negative = inhibition) at 1uM": 4.3}, {"smiles": "O=C(c1ccco1)N1CCN(C(=O)c2cc3cc([N+](=O)[O-])ccc3oc2=O)CC1", "hERG current change (%, negative = inhibition) at 1uM": -8.77}, {"smiles": "Cc1ccc(CN(C)C(=O)CN2C(=O)NC3(CCCC3)C2=O)o1", "hERG current change (%, negative = inhibition) at 1uM": 18.7}, {"smiles": "CC1(C)C=C(c2ccc(C=O)s2)CC(C)(C)N1C=O", "hERG current change (%, negative = inhibition) at 1uM": 4.77}, {"smiles": "Cc1ccc(S(=O)(=O)Oc2ccc(/C=N/NC(=O)c3c(Cl)cnn3C)cc2)cc1", "hERG current change (%, negative = inhibition) at 1uM": 6.95}, {"smiles": "CN(C)CCCNC(=S)Nc1ccc(-c2ccccc2)cc1", "hERG current change (%, negative = inhibition) at 1uM": 2.17}, {"smiles": "Cc1nc2ccccc2n1CC(=O)c1ccc(O)c(O)c1.Cl", "hERG current change (%, negative = inhibition) at 1uM": 11.9}, {"smiles": "NC(=O)NC(c1ccccc1)c1cccc2ccccc12", "note": "(stereo not drawn)", "hERG current change (%, negative = inhibition) at 1uM": 11.6}, {"smiles": "O=[N+]([O-])c1ccc(O)c(/C=N/Nc2nc3ccccc3[nH]2)c1", "hERG current change (%, negative = inhibition) at 1uM": 10.5}, {"smiles": "COc1ccc([C@@H](OC)[C@@]2(Cc3ccc(O)cc3)N=C(N)N(C)C2=O)cc1", "hERG current change (%, negative = inhibition) at 1uM": 5.53}, {"smiles": "CCCC(c1nnnn1C1CCCCC1)N1CCN(C(=O)c2ccco2)CC1.Cl", "note": "(stereo not drawn)", "hERG current change (%, negative = inhibition) at 1uM": -8.23}, {"smiles": "COc1ccccc1NCC(=O)N/N=C/c1sccc1C", "hERG current change (%, negative = inhibition) at 1uM": 14.6}, {"smiles": "O=C(CC1C(=O)NCCN1Cc1c(F)cccc1Cl)NCCc1ccccn1", "note": "(stereo not drawn)", "hERG current change (%, negative = inhibition) at 1uM": 18.2}, {"smiles": "CCN(CC)CCNC(=O)C(C)c1nn(C)c(=O)c2ccccc12", "note": "(stereo not drawn)", "hERG current change (%, negative = inhibition) at 1uM": 7.66}, {"smiles": "CCOC(=O)c1ccc2[nH]c3c(c2c1)CN(C)CC3", "hERG current change (%, negative = inhibition) at 1uM": -10.6}, {"smiles": "O=C(CN1C(=O)CSC1=O)Nc1ccccc1F", "hERG current change (%, negative = inhibition) at 1uM": 11.2}, {"smiles": "Cc1cccc(NCc2cc(Cl)cc(Cl)c2O)n1", "hERG current change (%, negative = inhibition) at 1uM": 12.3}, {"smiles": "O=C(COc1cccc(Cl)c1)N/N=C\\c1cc2ccccc2nc1Cl", "hERG current change (%, negative = inhibition) at 1uM": 9.71}, {"smiles": "C/C(=N\\NC(=O)Cc1ccccc1)c1cccs1", "hERG current change (%, negative = inhibition) at 1uM": 10.7}, {"smiles": "O=C(CCNC(=O)c1ccc(Cl)cc1)Nc1ccccc1N1CCCC1", "hERG current change (%, negative = inhibition) at 1uM": 2.63}, {"smiles": "C/C(=N\\NC(=O)C1CC1(C)c1ccccc1)c1ccco1", "note": "(stereo not drawn)", "hERG current change (%, negative = inhibition) at 1uM": 11.7}, {"smiles": "COc1ccc(-c2cc3ccccc3oc2=O)cc1NC(=O)c1ccc([N+](=O)[O-])o1", "hERG current change (%, negative = inhibition) at 1uM": 7.55}, {"smiles": "O=C(/C=C/c1ccccc1[N+](=O)[O-])NCc1ccncc1", "hERG current change (%, negative = inhibition) at 1uM": -2.49}, {"smiles": "O=C(c1cc(-c2ccccc2)n[nH]1)N1CCc2c([nH]c3ccccc23)C1c1ccccn1", "note": "(stereo not drawn)", "hERG current change (%, negative = inhibition) at 1uM": 17.4}, {"smiles": "CCn1c(=NC(=O)c2ccc(S(=O)(=O)N(C)C)cc2)sc2cccc(OC)c21", "hERG current change (%, negative = inhibition) at 1uM": 5.75}, {"smiles": "COc1cc2c(cc1O)[C@@H]1Cc3ccc(OC)c(O)c3CN1CC2", "hERG current change (%, negative = inhibition) at 1uM": 7.65}, {"smiles": "Cc1cc(C)c2c(Cn3ccnc3)cc(=O)oc2c1", "hERG current change (%, negative = inhibition) at 1uM": 12}, {"smiles": "CC1CCC(NC(=O)Cn2c(=O)[nH]c3ccsc3c2=O)CC1", "note": "(stereo not drawn)", "hERG current change (%, negative = inhibition) at 1uM": 17}, {"smiles": "CSCCC(NC(=O)COc1cccc2ccccc12)C(=O)O", "note": "(stereo not drawn)", "hERG current change (%, negative = inhibition) at 1uM": 5.7}, {"smiles": "CCOC(=O)c1nc(C)nc(Sc2n[nH]c(-c3ccc(C(C)(C)C)cc3)n2)c1C", "hERG current change (%, negative = inhibition) at 1uM": 2.36}, {"smiles": "O=[N+]([O-])c1ccc(-n2nnnc2CN2CCOCC2)cc1", "hERG current change (%, negative = inhibition) at 1uM": 12.2}, {"smiles": "COc1cccc(C(=O)OCCN(C)C(C)(C)C)c1.Cl", "hERG current change (%, negative = inhibition) at 1uM": 3.62}, {"smiles": "CC(=O)Nc1ccc(NC(=O)C(C)OC(=O)c2cccc(S(=O)(=O)N3CCCCCC3)c2)cc1", "note": "(stereo not drawn)", "hERG current change (%, negative = inhibition) at 1uM": 17.6}]}]}
